Among all 200,000 compounds or so, about 560 (0.28%) were called active. Inconclusive means that the source gave no clear call. Such entries were picked first, then a sample of the others. Calls come from the whole dose curve; as a rule, active = well fitted inhibition curve with a large enough effect; inconclusive = small, poorly fitted or top-dose-only effect; inactive = flat fitted curve, though single readings scatter. No potency is given beside an inconclusive call; the fits are too rough.
These molecules were tested against Luciferin 4-monooxygenase (Photuris pensylvanica) (UniProt Q27757) (assay: Counterscreen for Luciferase (Kinase-Glo TM) Inhibition). Settings: ATP luminescence, 8 min; series mostly up to 38.3 µM; activity change, negative = inhibition: at the top concentration.
Description: NCGC Assay Overview: NIH Molecular Libraries Screening Centers Network [MLSCN] NIH Chemical Genomics Center [NCGC] MLSCN Grant: None Luciferase (Kinase-Glo, Promega Corporation) was assayed for its ability to generate light using ATP and luciferin as substrates. The ATP concentration in the assay (10 uM) was within the linear range of enzyme activity for the assay conditions used.
NCGC Assay Protocol Summary: Four uL of substrate mix (final concentration, 50 mM imidazole pH 7.2, 50 mM KCl, 7 mM MgCl2, 10 uM ATP, 0.01% Tween 20, 0.05% BSA) was dispensed into white 1536 well plates. Twenty-three nL of compound was delivered by a pin tool and 2 uL of luciferase detection mix (Kinase-Glo, Promega)) was added. Following 8-minute incubation at ambient temperature, luminescence was measured by a ViewLux (Perkin Elmer) at 5 seconds exposure/plate.
For CCCCCC(=O)O[C@H](CC(=O)O)C[N+](C)(C)C, the “activity change, negative = inhibition” value was inactive: -0.354%.
In the case of COC(=O)NCc1ccc(CNC(=O)OC)cc1, the Potency is reported as inconclusive [inhibitor, single point].
For COC(=O)c1sccc1N/N=C/c1cccc(Oc2ccccc2)c1, the Potency was inconclusive [inhibitor, partial curve].
In the case of CC1=CC(=O)OC1Cc1ccc2ccccc2n1 (centres undefined), the Potency is reported as inconclusive [inhibitor, partial curve].
COC(=O)Cc1ccc(NC(=S)N2CCN(C)CC2)cc1 was tested, and the “activity change, negative = inhibition” value was inactive: -2.29%.
In the case of c1ccc(-c2nc3ccccc3s2)nc1, the Potency is reported as inconclusive [inhibitor, partial curve].
In the case of CCN1/C(=C\C=C2\C(=O)N(c3ccccc3)C(=S)N2C)Sc2ccccc21, the Potency is reported as inconclusive [inhibitor, partial curve].
With COC(=O)c1ccccc1NC1=C/C(=N\S(=O)(=O)c2cccs2)c2ccccc2C1=O the Potency was inconclusive [inhibitor, partial curve].
CCNC(=O)COC(=O)c1ccc(-c2nc3ccccc3s2)s1 was tested, and the Potency was inconclusive [inhibitor, partial curve].
With O=C(NC1=NCCS1)c1cc2ccccc2o1 the Potency was inconclusive [inhibitor, partial curve].
In the case of COc1ccc(C(=O)Nc2ccccc2C(=O)NC(Cc2ccc(O)cc2)C(=O)NNC(=O)c2ccncc2)cc1 (centres undefined), the “activity change, negative = inhibition” value is reported as inactive: -0.529%.
In the case of COc1ccc(C2C(=O)c3ccccc3C2=O)cc1OC, the Potency is reported as inconclusive [inhibitor, single point].
In the case of CCCN1C(=O)/C(=C\C=C2/C=CN(CC)c3ccccc32)SC1=S, the Potency is reported as inconclusive [inhibitor, full curve].
With O=C(NNc1ccc(C(F)(F)F)cc1[N+](=O)[O-])c1ccc(NS(=O)(=O)c2ccc(F)cc2)cc1 the Potency was inconclusive [inhibitor, partial curve].
C=CCN1C=C/C(=C\C=C(C#N)C#N)c2ccccc21 was tested, and the Potency was inconclusive [inhibitor, partial curve].
With CCOC(=O)c1sc(NC(=O)c2ccc(Br)o2)cc1C the Potency was inconclusive [inhibitor, single point].
With COc1ccc2nc(NC(=O)c3cc(C)oc3C)sc2c1 the Potency was active: 12.6 µM.
COc1cc(/C=C(\C#N)c2nc3ccccc3[nH]2)ccc1OC(=O)c1ccco1 was tested, and the Potency was inconclusive [inhibitor, single point].
COc1ccc(/C=C/C(=O)c2ccc3c(c2)OCO3)c(OC)c1 was tested, and the Potency was inconclusive [inhibitor, single point].
For S=C(Nc1ccc2cn[nH]c2c1)Nc1ccc2cn[nH]c2c1, the activity change, negative = inhibition was inactive: -4.78% [at 7.66 µM].
For CN(C(=O)CCc1nnc(CCCCc2ccccc2)o1)C1CCOCC1, the “activity change, negative = inhibition” value was inactive: 0.907%.
For COc1ccc(N=CC2=C(O)c3ccccc3C2=O)cc1, the Potency was active: 4.47 µM.
For Cc1cc(=O)[nH]c(N/N=C/c2sccc2C)n1, the Potency was active: 11.2 µM.
With COc1cc(/C=C(/C#N)c2nc3ccccc3[nH]2)ccc1OC(=O)c1ccco1 the Potency was inconclusive [inhibitor, single point].
For Cc1nc(-c2ccc(NC(=O)c3ccccc3C)cc2)cs1, the “activity change, negative = inhibition” value was inactive: -15.4%.
With COc1ncnc2sc(-c3ccccc3)cc12 the Potency was active: 10 µM.
For COc1ccc(-c2cn3ccccc3n2)cc1OC, the Potency was active: 11.2 µM.
For Cc1ccc(C(=O)Cn2c3c(sc2=N)CCCC3)cc1, the Potency was inconclusive [inhibitor, partial curve].
Cc1cccc(NC(=O)c2cnc3ccccn3c2=O)c1 was tested, and the “activity change, negative = inhibition” value was inactive: -15.4%.
In the case of CCN(CC(=O)NCCc1ccc(S(N)(=O)=O)cc1)Cc1nc2cc(OC)c(OC)cc2c(=O)[nH]1, the “activity change, negative = inhibition” value is reported as inactive: -3.26%.
For CC(=O)Oc1ccc(C)cc1-n1nc2ccccc2n1, the Potency was inconclusive [inhibitor, partial curve].
For O=C(OCc1csc(-c2ccccc2)n1)c1cccs1, the Potency was inconclusive [inhibitor, single point].
For COc1ccc(O)c(CN2CCN(CCc3ccccc3)C(CCO)C2)c1 (centres undefined), the “activity change, negative = inhibition” value was inactive: -2.25%.
Cc1cc(C)n2nc(C(=O)Nc3ccc4c(c3)OCO4)nc2n1 was tested, and the Potency was inconclusive [inhibitor, single point].
NCCCS(=O)(=O)O was tested, and the Potency was “inactive”.
With COCCNC(=O)/C(C#N)=C/c1ccc(O)c([N+](=O)[O-])c1 the Potency was inconclusive [inhibitor, single point].
With O=[N+]([O-])c1cccc(-c2nc3ccc([N+](=O)[O-])cc3[nH]2)c1 the Potency was inconclusive [inhibitor, single point].
For Cc1cc2nc(-c3cccnc3SCC(=O)NC3CC3)[nH]c2cc1C, the Potency was inconclusive [inhibitor, partial curve].
For N/C(=N\OC(=O)c1ccc(Cl)cc1Cl)c1ccccc1, the Potency was active: 11.2 µM.
For CCOC(=O)c1cnc(Nc2nc3ccccc3o2)nc1C, the Potency was active: 2 µM.
In the case of COc1ccccc1Nc1nnc(SCC(=O)N2CCCC2)s1, the Potency is reported as inconclusive [inhibitor, partial curve].
For COC(=O)c1ccc(-c2nc3cc(Cl)c(N)cc3s2)cc1, the Potency was inconclusive [inhibitor, partial curve].
In the case of COc1cc(/C=C2/C(=O)c3cccc([N+](=O)[O-])c3C2=O)c(Br)cc1O, the Potency is reported as active: 11.2 µM.
COc1ccc(NS(=O)(=O)c2ccc(NC(=S)NC(=O)c3cccc(F)c3)cc2)nn1 was tested, and the Potency was inconclusive [inhibitor, single point].
With CC(=O)Nc1ccc(/C=N/NC(=O)c2cc3ccccc3nc2C)cc1 the “activity change, negative = inhibition” value was inactive: -0.116%.
For C=C(C(C)=O)C(O)/C=C/c1ccco1 (centres undefined), the “activity change, negative = inhibition” value was inactive: -4.65%.
COc1ccc(OC)c(CCNC(=O)Cn2sc3nc(C)cc(C)c3c2=O)c1 was tested, and the Potency was inconclusive [inhibitor, single point].
With Cc1ccc(C(=O)N2CCc3ccccc32)o1 the Potency was active: 12.6 µM.
With COc1cc2nc(CN(C)Cc3ccc(C(C)(C)C)cc3)[nH]c(=O)c2cc1OC the Potency was inconclusive [inhibitor, single point].

From PubChem BioAssay AID1379 (National Center for Advancing Translational Sciences (NCATS), 2008)
% is set by controls: 0 for no effect and ±100 for the full control effect; potency is the fitted concentration of half-maximal effect; tags give direction and shape of the fitted curve.
Note: nearly all actives have a fitted effect of over 60% in size.
